Holding throughout (details): among the four antibodies selected in Reference Example 1.7
Assay [1] concerns c-Met. The experiment in a line: c-Met degradation degree of affinity-matured antibodies. In kind it is cell-based.
The subject of the next assay is Akt. The experiment in a line: Akt phosphorylation by affinity-matured antibodies. The format is cell-based.
Assay [2] deals with c-Met. The experiment in a line: Affinity for c-Met of affinity-matured antibodies. In kind it is binding.

B1: huAbF46-H4-A1: affinity-matured humanized anti-c-Met antibody (L3-1 origin) (antibody)
heavy: EVQLVESGGGLVQPGGSLRLSCAASGFTFTDYYMSWVRQAPGKGLEWLGFIRNKANGYTTEYSASVKGRFTISRDNSKNTLYLQMNSLRAEDTAVYYCARDNWFAYWGQGTLVTVSSASTKGPSVFPLAPSSKSTSGGTAALGCLVKDYFPEPVTVSWNSGALTSGVHTFPAVLQSSGLYSLSSVVTVPSSSLGTQTYICNVNHKPSNTKVDKKVEPKSCDCH[human IgG1 Fc not printed]
light: DIQMTQSPSSLSASVGDRVTITCKSSQSLLASGNQNNHLAWYQQKPGKAPKMLIIWASTRVSGVPSRFSGSGSGTDFTLTISSLQPEDFATYYCQQSYSRPYTFGQGTKVEIKRTVAAPSVFIFPPSDEQLKSGTASVVCLLNNFYPREAKVQWKVDNALQSGNSQESVTEQDSKDSTYSLSSTLTLSKADYEKHKVYACEVTHQGLSSPVTKSFNRGEC
B1: the c-Met degradation degree entry in the assay with c-Met [1] is listed as “lowest”. For the same molecule, the Akt phosphorylation entry in the assay with Akt is “lowest”. For the same molecule, the “affinity for c-Met” value with c-Met [2] was “highest”.
